At least one read-out could not be matched to a standard name with certainty.
What was measured:
[1] = Photochromic properties of photochromic laminate (plastic lens) made by coating method; assay type: physicochemical; conditions: after 240 seconds irradiation at 23°C
Description: First, the photochromic compound obtained in Example 1 above, a photoinitiator, and polymerizable compounds were mixed to obtain a curable composition.
As the polymerizable compounds, a blend of the following radically-polymerizable monomers in combination was used.
• Polyethylene glycol dimethacrylate (average molecular weight: 736): 42 parts by mass • Polyethylene glycol dimethacrylate (average molecular weight: 536): 12 parts by mass • Trimethylolpropane trimethacrylate: 38 parts by mass • γ-Methacryloyloxypropyltrimethoxysilane: 2 parts by mass • Glycidyl methacrylate: 1 part by mass.
Note that in the curable composition, the photochromic compound obtained in Example 1 above was added to be 0.25 mmol taking the total amount of the radically-polymerizable monomers as 100 g. The following were used as additives.
(stabilizer, Irganox 245): 1 part by mass Bis(1,2,2,6,6-pentamethyl-4-piperidyl) sebacate: 3 parts by mass Leveling agent from DuPont Toray Specialty Materials K.K. (L7001): 0.1 parts by mass.
Note that the above-mentioned additives are described with blending ratios taking a total of the radically-polymerizable monomers as 100 parts by mass.
Using this curable composition, a photochromic laminate was obtained by a lamination process described below with the polymerization described below being carried out.
First, a thiourethane plastic lens with a center thickness of 2 mm and a refractive index of 1.60 was prepared as an optical substrate. Note that the thiourethane plastic lens had been alkaline-etched beforehand in a 10% aqueous sodium hydroxide solution at 50°C for 5 minutes, and then thoroughly washed with distilled water.
A spin coater (1H-DX2, manufactured by MIKASA CO., LTD) was used to coat a surface of the above-mentioned plastic lens with a moisture-curable primer (product name: TR-SC-P, manufactured by Tokuyama Corporation) at a rotation speed of 70 rpm for 15 seconds, followed by at 1000 rpm for 10 seconds. Then, about 2 g of the photochromic curable composition obtained as above was spin-coated at a rotation speed of 60 rpm for 40 seconds, followed by at 600 rpm for 10 to 20 seconds so as to achieve a photochromic coating layer with a film thickness of 40 µm.
The lens having the surface coated with the photochromic curable composition (photochromic coating layer) was irradiated with light for 90 seconds in a nitrogen gas atmosphere using a metal halide lamp with an output of 200 mW/cm^2 to cure the coating film. The coating was then further heated at 110°C for 1 hour to produce a photochromic laminate with a photochromic layer.
Photochromic laminates were produced using the photochromic compounds obtained in Examples 2 to 19 in the same manner as in Example 20.
Photochromic laminates were obtained in the same manner as in Example 20 using photochromic compounds represented by the following formulas (A) to (F). [drawing 143] [drawing 144] [drawing 145] [drawing 146] [drawing 147] [drawing 148] [drawing 149] [drawing 150]
The resulting photochromic laminates were evaluated by the methods described below.
Table 3 summarizes the results of Examples 20, 32, and 34, and Comparative Examples 1 to 6, and Table 4 summarizes the results of Examples 21 to 31, 33, and 35 to 38. The relationship between the fading half-life at 23°C and the color development ratio at the higher temperature of the photochromic laminates according to Examples and Comparative Examples are shown in a graph in FIG. 1.
Photochromic laminates were formed using the photochromic compound obtained in Examples 61 to 71 in the same manner as in Example 20.

[2] = Photochromic properties of photochromic cured product made by kneading method; assay type: physicochemical; conditions: after 240 seconds irradiation at 23°C
Description: First, the photochromic compound obtained in Example 1, additives, and polymerizable compounds were mixed to obtain a curable composition. As the polymerizable compounds, a blend of the following polymerizable monomers in combination was used. • 1,3-Bis(isocyanatomethyl)cyclohexane: 36.7 parts by mass Pentaerythritol tetrakis(3-mercaptopropionate): 39.4 parts by mass • Polyoxyethylene polyoxypropylene lauryl ether (WONDERSURF 140 from Aoki Oil Industrial Co., Ltd.): 17.4 parts by mass 1-Decanethiol: 2.8 parts by mass • RX-1 prepared according to the method described in Patent Document 12: 3.8 parts by mass Note that in the curable composition, the photochromic compound was added to be 0.106 mmol taking the total amount of the polymerizable monomers as 100 g.
The following additives were used. Dimethyltin dichloride: 0.05 parts by mass • Irganox 245 from BASF Japan Ltd.: 0.1 parts by mass • 2-Ethylhexyl 4-methoxycinnamate: 0.6 parts by mass
The prepared curable composition was sufficiently degassed, and then injected into a glass mold provided with a gap of 1 mm, and the curable composition was polymerized via casting polymerization. […] After the polymerization, the cured product was removed from the glass mold, to obtain photochromic cured product having a thickness of 1 mm. The resulting photochromic cured product was evaluated in the same manner as in Example 23.
(Examples 51 to 60, and Comparative Examples 11 to 14) Photochromic cured products were formed using the photochromic compound shown in Table 6 in the same manner as in Example 50.

SMILES	Fading half-life at 23°C ([1]; first absorption wavelength)	Fading half-life at 23°C ([1]; second absorption wavelength)	Fading half-life at 23°C ([2]; first absorption wavelength)	Fading half-life at 23°C ([2]; second absorption wavelength)
COc1ccc(C2(c3ccc(OC)cc3)C=Cc3c4c(c5ccc(OC)cc5c3O2)-c2ccc(N(C)c3ccccc3)cc2C4(C)C)cc1 [Formula (1-7)]	2.4 min	2.42 min	3.33 min	3.33 min
COCCCCC1(CCCCOC)c2cc(N(C)c3ccccc3)ccc2-c2c1c1c(c3cc(OC)c(OC)cc23)OC(c2ccc(OC)cc2)(c2ccc(OC)cc2)C=C1 [Formula (2-7)]	2.4 min	2.4 min	3.53 min	3.52 min
CCCCOc1ccc(C2(c3ccc(OC)cc3)C=Cc3c4c(c5ccc(C)cc5c3O2)-c2ccc(N3CCOc5ccccc53)cc2C4(CCCC(F)(F)F)CCCC(F)(F)F)cc1 (centres unmarked) [Formula (3-3)]	2.88 min	2.88 min	4.08 min	4.07 min
COc1ccc(C2(c3ccc(N4CCOCC4)cc3)C=Cc3c4c(c5ccc(OC)cc5c3O2)-c2ccc(N(C)c3ccccc3)cc2C42CCCCCCC2)cc1 (centres unmarked) [Formula (4-3)]	1.72 min	1.73 min	2.38 min	2.38 min
CCCOc1ccc(C2(c3ccc(OCCC)cc3)C=Cc3c4c(c5ccc(-c6ccc(OC)cc6OC)cc5c3O2)-c2ccc(N(C)c3ccc(F)cc3)cc2C4(CC)CC)cc1 [Formula (5-4)]	1.65 min	1.68 min	–	–
CCCCCCOc1ccc(C2(c3ccc(OCCCCCC)cc3)C=Cc3c4c(c5ccc(OC(F)(F)F)cc5c3O2)-c2ccc(N(C)c3ccc(C(F)(F)F)cc3)cc2C42CCC(CC)(CC)CC2)cc1 [Formula (6-3)]	0.333 min	0.333 min	–	–
CCCOc1ccc(C2(c3ccc(OC)cc3)C=Cc3c4c(c5cc6c(cc5c3O2)OC(C)(C)S6)-c2ccc(N3CCCc5ccccc53)cc2C4(CCCOC)CCCOC)cc1 (centres unmarked) [Formula (7-4)]	1.17 min	1.17 min	1.67 min	1.65 min
COc1ccc(C2(c3ccc(OC)cc3)C=Cc3c4c(c5ccc(Oc6ccccc6)cc5c3O2)-c2ccc(N(c3ccccc3)c3ccccc3)cc2C4(CCCCF)CCCCF)cc1 [Formula (8-2)]	0.833 min	0.833 min	1.17 min	1.17 min
CCCOc1ccc(C2(c3ccc(OC)cc3)C=Cc3c4c(c5cc(C)c(OC)cc5c3O2)-c2ccc(N3CCSc5ccccc53)cc2C4(CCC)CCC)cc1 (centres unmarked) [Formula (9-2)]	2.08 min	2.08 min	2.95 min	2.97 min
COCCN(c1ccccc1)c1ccc2c(c1)C(CCOC)(CCOC)c1c3c(c4cc(C)c(N5CCOCC5)cc4c1-2)OC(c1ccc(OC)cc1)(c1ccc(OC)cc1)C=C3 [Formula (10-3)]	1.18 min	1.18 min	–	–
COc1ccc(C2(c3ccc(N4CCOCC4)cc3)C=Cc3c4c(c5cc(Sc6c(C)cccc6C)c(OC)cc5c3O2)-c2ccc(N3CCOc5cc(F)ccc53)cc2C42CC(C)(C)CC(C)(C)C2)cc1 (centres unmarked) [Formula (11-4)]	0.4 min	0.4 min	–	–
CCCCC1(CCCC)c2cc(N(CC)c3ccccc3)ccc2-c2c1c1c(c3cc(C)c(-c4ccc(OC)cc4)cc23)OC(c2ccc(C)cc2)(c2ccc(N(C)c3ccccc3)cc2)C=C1 (centres unmarked) [Formula (12-5)]	1.97 min	1.95 min	2.83 min	2.85 min
COc1ccc2c3c(c4c(c2c1)OC(c1ccc(F)cc1)(c1ccc(N2CCOCC2)cc1)C=C4)C(CCC(F)(F)F)(CCC(F)(F)F)c1cc(N(C)c2ccc(C)cc2)ccc1-3 (centres unmarked) [Formula (14-3)]	1.22 min	1.18 min	–	–
CCCC1(CCC)c2cc(N3CCCc4ccccc43)ccc2-c2c1c1c(c3cc(OC)ccc23)OC(c2ccc(OC)cc2)(c2ccc(OCCCO)cc2)C=C1 (centres unmarked) [Formula (17-3)]	1.47 min	1.48 min	–	–
CCC1(CC)c2cc(N3CCOc4ccccc43)ccc2-c2c1c1c(c3cc(OC)ccc23)OC(c2ccc(OCCOC(=O)CCCCCCCCC(=O)OCCOc3ccc(C4(c5ccc(N6CCOCC6)cc5)C=Cc5c6c(c7ccc(OC)cc7c5O4)-c4ccc(N5CCOc7ccccc75)cc4C6(CC)CC)cc3)cc2)(c2ccc(N3CCOCC3)cc2)C=C1 (centres unmarked) [Formula (19-3)]	0.833 min	0.833 min	–	–
CCCOc1ccc(C2(c3ccc(OCCC)cc3)C=Cc3c4c(c5cc(N(C)c6ccccc6)c(OC)cc5c3O2)-c2ccc(N(C)c3ccccc3)cc2C4(CCC)CCC)cc1 [Formula (61-4)]	1.8 min	1.83 min	–	–
COCCOCCOCCC1(CCOCCOCCOC)c2cc(N(c3ccccc3)c3ccccc3)ccc2-c2c1c1c(c3cc(OC)c(-c4c(OC)cc(OC)cc4OC)cc23)OC(c2ccc(OC)cc2)(c2ccc(OC)cc2)C=C1 [Formula (62-5)]	1.7 min	1.72 min	–	–
CCCCOc1ccc(C2(c3ccc(OC)cc3)C=Cc3c4c(c5cc(-c6ccc(C(F)(F)F)cc6)c(OC)cc5c3O2)-c2ccc(N(C)c3ccccc3)cc2C4(CCC)CCC)cc1 (centres unmarked) [Formula (63-2)]	1.37 min	1.37 min	–	–
CCCCCC1(CCCCC)c2cc(N3CCOc4ccccc43)ccc2-c2c1c1c(c3cc(OC)c(-c4ccc(N5CCOc6ccccc65)cc4)cc23)OC(c2ccc(OC)cc2)(c2ccc(OC)cc2)C=C1 [Formula (66-5)]	1.98 min	2 min	–	–
CCC1(CC)c2cc(N(C)c3ccccc3)ccc2-c2c1c1c(c3cc(OC)c(-c4ccc(OC)cc4OC)cc23)OC(c2ccc(OC)cc2)(c2ccc(N3CCOCC3)cc2)C=C1 (centres unmarked) [Formula (67-2)]	1.38 min	1.38 min	–	–
CCCCOCCC1(CCOCCCC)c2cc(N(c3ccccc3)c3ccc(C)cc3)ccc2-c2c1c1c(c3cc(OC)c(OC)cc23)OC(c2ccc(OC)cc2)(c2ccc(N3CCOCC3)cc2)C=C1 (centres unmarked) [Formula (68-2)]	1.07 min	1.07 min	–	–
COCCCC1(CCCOC)c2cc(N(c3ccccc3)c3ccccc3)ccc2-c2c1c1c(c3cc(OC)c(N4CCOCC4)cc23)OC(c2ccc(C)cc2)(c2ccc(N(C)c3ccccc3)cc2)C=C1 (centres unmarked) [Formula (69-2)]	2.45 min	2.42 min	–	–
CCCC1(CCC)c2cc(N(C)c3ccccc3)ccc2-c2c1c1c(c3cc(OC)c(-c4ccc(N5CC(C)OC(C)C5)cc4)cc23)OC(c2ccc(N3CCOCC3)cc2)(c2ccc(OC)c(OC)c2)C=C1 (centres unmarked) [Formula (71-5)]	3.75 min	3.8 min	–	–
